From the supplement of paper PMC3334620
Over roughly 33,000 sequences, “E-score (-0.5 to 0.5)” has its median near -0.035; the highest 2% begin near 0.34. The list shows a part of the results.

Biological target: T1, Mot3 (UniProt P54785)
T1 sequence: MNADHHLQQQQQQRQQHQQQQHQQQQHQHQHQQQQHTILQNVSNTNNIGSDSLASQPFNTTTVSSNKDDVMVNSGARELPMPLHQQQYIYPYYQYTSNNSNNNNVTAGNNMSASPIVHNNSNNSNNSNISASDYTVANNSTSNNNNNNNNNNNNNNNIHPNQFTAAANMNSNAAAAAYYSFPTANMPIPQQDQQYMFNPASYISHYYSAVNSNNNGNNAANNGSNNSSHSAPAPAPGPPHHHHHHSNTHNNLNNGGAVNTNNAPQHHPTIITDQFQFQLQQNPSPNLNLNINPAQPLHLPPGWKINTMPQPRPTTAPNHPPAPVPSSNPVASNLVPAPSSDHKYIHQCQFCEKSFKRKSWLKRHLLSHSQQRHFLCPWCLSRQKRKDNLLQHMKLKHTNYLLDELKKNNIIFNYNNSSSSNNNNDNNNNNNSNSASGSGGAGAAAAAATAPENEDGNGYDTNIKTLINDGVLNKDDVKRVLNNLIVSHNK
Assay: PBM E-score (8-mer binding enrichment) (E-score (-0.5 to 0.5)); higher = stronger / more preferred TF binding; most listed sequences are background and not binding sites
Settings: protein concentration: 200 nM; construct: GST-full length
In short: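 For each ungapped eight-base word taken together with its reverse complement, the Universal PBM Analysis Suite assigned an E-score. Binding data came from GST-tagged yeast transcription factors, applied at about 100-200 nM, on universal all-10-mer Agilent arrays made double-stranded by primer extension. Fluorescent anti-GST marked bound protein, and scans were normalised with masliner.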

Sequence | PBM E-score
AGCGCCTA | 0.246
CAGCTTTA | -0.00271
AAGACTCC | -0.284
ACTAGCCA | -0.0663
AGTATAAA | 0.2
CGTCTGTA | 0.135
ACAATGGG | 0.0724
GCGCTCAC | -0.22
AGGATGAA | -0.169
ATGGGCAC | 0.333
GAGCGGGC | -0.0797
AGTAGAGA | -0.00099
CTAGGACC | -0.347
CTCGGTAC | -0.107
TACCGGAA | -0.116
CCCGACAA | 0.0417
CCCGCGTA | 0.172
CACGTTAA | 0.313
AGCTGCGG | -0.289
GCGCTATA | -0.0427
ATCTGTTG | -0.013
TGAGACCA | 0.0857
CTGCACGC | -0.109
AAGCCTAG | -0.0459
ACAGATCG | -0.134

Sequence | PBM E-score
AGACAATC | 0.0374
AAAGCTCA | -0.0501
GAAACCCA | 0.0753
CTTAACAA | 0.245
AGTCCCGG | -0.218
AATCCATA | 0.0376
CGCGATAC | -0.0435
CTCGTGCA | -0.143
CGGAATCC | -0.253
CGACTAGA | -0.0287
CCAGGCTA | -0.195
ACTCACCG | -0.239
GCTTACTA | 0.0818
ACAACGGG | 0.07
CCACGTCG | -0.15
AGAATCAC | -0.211
AGAATGAG | -0.0739
AGGCGAGA | -0.182
ACCAGGAC | -0.0344
ACAAGAAA | 0.142
CCTTTCTA | 0.101
GACACAAA | 0.082
CGTAGGAC | -0.166
TCACGTGA | -0.0741
GTCCCAAA | -0.0951

Sequence | PBM E-score
CTAACTAC | 0.0583
CAGGCTCG | 0.342
GGAACAAA | 0.305
GAAAATTA | 0.235
GCGACTCA | -0.142
CTTGAGCA | -0.19
ACGGCAAT | 0.0994
CATTTGAC | 0.0257
CCGACGGA | -0.274
GTAGGACA | 0.0541
CATGCTGA | 0.17
CAACGCCA | 0.039
TTCCCAAA | 0.0393
ACGTGCGC | 0.146
TAAAAAGA | -0.0801
GCCCTATA | -0.216
ATCCGGCC | -0.273
CTTGACAC | 0.143
AGCCGCCG | -0.252
AACACCTG | 0.251
ATACTGAA | 0.0137
AAGGAACG | 0.465
ATCATACG | 0.00597
AGAACATA | 0.156
ACTTCAGG | 0.053

Sequence | PBM E-score
CATACTGG | -0.0594
GTTCTGTA | 0.126
ATACGAGC | 0.0965
CTGGAACC | -0.17
AACCAGCT | 0.0762
AGTCAGAT | -0.0193
CTTAACGC | 0.204
ACCCCAGG | 0.00741
CCAATGGA | -0.26
CAGCTGGC | -0.0634
GAAGCATC | -0.239
CGTTGACC | -0.0213
ATGTGTAA | 0.352
CAGTGCGC | -0.292
GAACATCA | 0.0642
GCTCGTCC | -0.215
ACGACGAC | -0.22
GAGTTAAC | 0.0651
CCAGGCGC | -0.00734
CGTGATTA | 0.0977
AGGCTATG | 0.0627
GATCTAGC | -0.194
CCGATAAG | -0.00261
AATTTGAA | -0.0278
AGCCGAGG | -0.0186

Sequence | PBM E-score
CTATATGC | 0.0184
CGACGCTA | -0.143
AACATACT | 0.242
TAACACCA | 0.205
CATAAGCA | 0.00271
ACATGTTA | 0.397
CTAGTATC | -0.0309
ACCGCAGA | -0.26
GCTTATAA | -0.0151
AGATCAAT | -0.18
AGGTCTAT | -0.196
TCTCGAGA | 0.0477
GTCCCAGA | -0.172
CGAACATC | -0.199
AGTCTGGC | -0.162
TACGCGCA | 0.176
ACGACAGT | -0.00173
AATACTCA | 0.0675
ATAGGGGG | -0.316
ATAGTGGC | -0.193
CCCAAAAG | 0.0545
AAGGCTGG | -0.153
CTCACGAC | -0.146
AGTGGAGA | -0.0726
GATTGAAA | -0.0494

Sequence | PBM E-score
ACATTATG | 0.126
AGGTGTGC | 0.0416
AGCCTTAG | -0.136
CCCGTGCA | -0.17
CCTCAGAG | -0.249
CCCACCGA | -0.241
GGCAGATA | -0.117
CGATTTCC | 0.0121
CAGGTCAC | 0.0164
TAATCTGA | 0.138
ACGCTTTA | 0.0835
GCCGTCGC | -0.116
CTATCTGA | -0.329
CGACCATC | -0.171
CATCCACA | -0.0146
GTCCCACA | -0.0631
AGTAACTC | -0.177
AACTTGAG | -0.141
ATGTGCTA | -0.0423
ATCGAAGG | 0.0206
GTGTGAAA | 0.248
ACGCTAAG | -0.0516
GGACAGGA | -0.0828
GTAGTACA | 0.249
ATCACGAT | 0.0535

Sequence | PBM E-score
ATTTCGAA | 0.123
CTTGTCCC | -0.0647
CTTTTATC | -0.0834
GAAACTCC | -0.0903
AGTAAGAC | -0.0721
TCAGATCA | -0.237
GTACGAGA | -0.0381
ACATGACC | 0.293
GGTGAAAC | -0.161
GGTTAAGA | 0.0705
ACGCAGAG | 0.028
AGCAAAGG | 0.0188
GGCGATTA | -0.0927
AATGCTAA | 0.0146
AGTGTGGG | -0.221
CAGGCGAC | 0.0795
TACTAGAA | 0.0406
GGTTAGAA | -0.245
CGAGGTGC | 0.00872
GCTAGCTA | -0.0486
ACGTAAGC | 0.112
AACGGAGT | -0.0554
